The other results are listed elsewhere or left out.
Legend:
Experiment in all cases: glycan array binding signal (z-score within array); higher = stronger binding
Conditions in all cases: glycan notation: IUPAC condensed, linker removed
[1] = target: Fuc(a1-2)[Gal(a1-4)]Gal(b1-4)GlcNAc
Procedure, shortened: (§1)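 Glycan array binding is given as a within-array Z-score, which can be read as non-binding when negative. The arrays, 3228 of them, came from the Consortium for Functional Glycomics database and were retained only where the protein sequence was available. Z-scores were averaged across arrays of the same protein sequence at different concentrations or buffers and across linkers.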

[2] = target: Fuc(a1-2)[GalNAc(a1-3)]Gal
Procedure, shortened: as §1

[3] = target: Fuc(a1-2)[GalNAc(a1-3)]Gal(b1-3)GalNAc(a1-3)[Fuc(a1-2)]Gal(b1-4)GlcNAc
Procedure, shortened: as §1

[4] = target: Fuc(a1-2)[GalNAc(a1-3)]Gal(b1-3)GalNAc(b1-3)Gal(a1-4)Gal(b1-4)Glc
Procedure, shortened: as §1

[5] = target: Fuc(a1-2)[GalNAc(a1-3)]Gal(b1-3)GlcNAc
Procedure, shortened: as §1

[6] = target: Fuc(a1-2)[GalNAc(a1-3)]Gal(b1-3)GlcNAc(b1-2)Man(a1-3)[Fuc(a1-2)[GalNAc(a1-3)]Gal(b1-3)GlcNAc(b1-2)Man(a1-6)]Man(b1-4)GlcNAc(b1-4)GlcNAc
Procedure, shortened: as §1

[7] = target: Fuc(a1-2)[GalNAc(a1-3)]Gal(b1-3)GlcNAc(b1-2)Man(a1-3)[Fuc(a1-2)[GalNAc(a1-3)]Gal(b1-3)GlcNAc(b1-2)Man(a1-6)]Man(b1-4)GlcNAc(b1-4)[Fuc(a1-6)]GlcNAc
Procedure, shortened: as §1

[8] = target: Fuc(a1-2)[GalNAc(a1-3)]Gal(b1-3)GlcNAc(b1-3)GalNAc
Procedure, shortened: as §1

[9] = target: Fuc(a1-2)[GalNAc(a1-3)]Gal(b1-3)GlcNAc(b1-6)GalNAc
Procedure, shortened: as §1

[10] = target: Fuc(a1-2)[GalNAc(a1-3)]Gal(b1-4)Glc
Procedure, shortened: as §1

[11] = target: Fuc(a1-2)[GalNAc(a1-3)]Gal(b1-4)GlcNAc
Procedure, shortened: as §1

[12] = target: Fuc(a1-2)[GalNAc(a1-3)]Gal(b1-4)GlcNAc(b1-2)Man
Procedure, shortened: as §1

[13] = target: Fuc(a1-2)[GalNAc(a1-3)]Gal(b1-4)GlcNAc(b1-2)Man(a1-3)[Fuc(a1-2)[GalNAc(a1-3)]Gal(b1-4)GlcNAc(b1-2)Man(a1-6)]Man(b1-4)GlcNAc(b1-4)GlcNAc
Procedure, shortened: as §1

[14] = target: Fuc(a1-2)[GalNAc(a1-3)]Gal(b1-4)GlcNAc(b1-2)Man(a1-3)[Fuc(a1-2)[GalNAc(a1-3)]Gal(b1-4)GlcNAc(b1-2)Man(a1-6)]Man(b1-4)GlcNAc(b1-4)[Fuc(a1-6)]GlcNAc
Procedure, shortened: as §1

[15] = target: Fuc(a1-2)[GalNAc(a1-3)]Gal(b1-4)GlcNAc(b1-3)Gal(b1-4)GlcNAc
Procedure, shortened: as §1

[16] = target: Fuc(a1-2)[GalNAc(a1-3)]Gal(b1-4)GlcNAc(b1-3)Gal(b1-4)GlcNAc(b1-3)Gal(b1-4)GlcNAc
Procedure, shortened: as §1

[17] = target: Fuc(a1-2)[GalNAc(a1-3)]Gal(b1-4)GlcNAc(b1-3)GalNAc
Procedure, shortened: as §1

[18] = target: Fuc(a1-2)[GalNAc(a1-3)]Gal(b1-4)GlcNAc(b1-3)[Fuc(a1-2)[GalNAc(a1-3)]Gal(b1-4)GlcNAc(b1-6)]GalNAc
Procedure, shortened: as §1

[19] = target: Fuc(a1-2)[GalNAc(a1-3)]Gal(b1-4)GlcNAc(b1-6)GalNAc
Procedure, shortened: as §1

[20] = target: Fuc(a1-2)[GalNAc(a1-3)]Gal(b1-4)[Fuc(a1-3)]GlcNAc
Procedure, shortened: as §1

[21] = target: Fuc(a1-2)[GalNAc(a1-3)]Gal(b1-4)[Fuc(a1-3)]GlcNAc(b1-3)GalNAc
Procedure, shortened: as §1

[22] = target: Fuc(a1-2)[GalNAc(a1-4)]Gal(b1-4)GlcNAc
Procedure, shortened: as §1

[23] = target: Fuc(a1-2)[GalNAc(b1-3)]Gal
Procedure, shortened: as §1

[24] = target: Fuc(a1-3)GlcNAc
Procedure, shortened: as §1

[25] = target: Fuc(a1-3)[Gal(b1-4)]Glc6S
Procedure, shortened: as §1

[26] = target: Fuc(a1-3)[Gal(b1-4)]GlcNAc
Procedure, shortened: as §1

[27] = target: Fuc(a1-3)[Gal(b1-4)]GlcNAc(b1-2)Man
Procedure, shortened: as §1

[28] = target: Fuc(a1-3)[Gal(b1-4)]GlcNAc(b1-2)Man(a1-3)[Fuc(a1-3)[Gal(b1-4)]GlcNAc(b1-2)Man(a1-6)]Man(b1-4)GlcNAc(b1-4)GlcNAc
Procedure, shortened: as §1

[29] = target: Fuc(a1-3)[Gal(b1-4)]GlcNAc(b1-2)Man(a1-3)[Fuc(a1-3)[Gal(b1-4)]GlcNAc(b1-2)Man(a1-6)]Man(b1-4)GlcNAc(b1-4)[Fuc(a1-6)]GlcNAc
Procedure, shortened: as §1

[30] = target: Fuc(a1-3)[Gal(b1-4)]GlcNAc(b1-3)Gal(b1-3)[Fuc(a1-4)]GlcNAc
Procedure, shortened: as §1

[31] = target: Fuc(a1-3)[Gal(b1-4)]GlcNAc(b1-3)Gal(b1-4)[Fuc(a1-3)]GlcNAc
Procedure, shortened: as §1

[32] = target: Fuc(a1-3)[Gal(b1-4)]GlcNAc(b1-3)Gal(b1-4)[Fuc(a1-3)]GlcNAc(b1-3)Gal(b1-4)[Fuc(a1-3)]GlcNAc
Procedure, shortened: as §1

[33] = target: Fuc(a1-3)[Gal(b1-4)]GlcNAc(b1-3)GalNAc
Procedure, shortened: as §1

[34] = target: Fuc(a1-3)[Gal(b1-4)]GlcNAc(b1-6)GalNAc
Procedure, shortened: as §1

[35] = target: Fuc(a1-3)[Gal(b1-4)]GlcNAc(b1-6)[Gal(b1-3)GlcNAc(b1-3)]Gal(b1-4)Glc
Procedure, shortened: as §1

[36] = target: Fuc(a1-3)[Gal(b1-4)]GlcNAc6S
Procedure, shortened: as §1

[37] = target: Fuc(a1-3)[Gal3S(b1-4)]Glc
Procedure, shortened: as §1

[38] = target: Fuc(a1-3)[Gal3S(b1-4)]GlcNAc
Procedure, shortened: as §1

B1: PX14379A-bvu-539-28-539 (Bacteroides vulgatus) (protein)
chain: EPYSEIIEEDYVPTEADEIALLATTYSQLRFVMDWYGLFDLQEESGDVIVTPTRPNGWDDGGTYKQMHKHTWDNQQGQPQSIWDYCYKGIANANKILKRADEGFFTEESKPKVVAEVKGVRALWYSILCDTHGNIPIQTSFSEEVPVQSTRKQVFDFIINELKEVMPNLPTEVNKSTYGRLTQWGAKCLMARMYLNAGVYTGTPMWNECLEQCNDIINSGLFSLETNYTDIFKTENSGCVETIFAIPYDEVYNEGDNNGPVFGAHMKFLSSNSRKVFNMQTTPWGGSAANPQFINSYDPDDMRLKYTWLQGDQYSPDGVLITTFPNKLPSIYKTDTDDGYRVGKYEIKVGAKSLLSNDFPYFRYTEVLLMKAECLLRLGQNETEAAHIVSQIRERAFRESAHPEKATVDAAWLKGDTHINYGTLDEKGQIDDAGNTEVVELGGLYDEWGWEFAAEARRRTDMIRFGTYQKKSWFNHTPTANDLNGNSILFPIHLDHLNTNPNLQQNPGYAGK
- glycan array binding signal (z-score) [1]: -0.199
- glycan array binding signal (z-score) [2]: -0.215
- glycan array binding signal (z-score) [3]: -0.41
- glycan array binding signal (z-score) [4]: -0.369
- glycan array binding signal (z-score) [5]: 0.086
- glycan array binding signal (z-score) [6]: 1.23
- glycan array binding signal (z-score) [7]: -0.277
- glycan array binding signal (z-score) [8]: -0.225
- glycan array binding signal (z-score) [9]: -0.335
- glycan array binding signal (z-score) [10]: -0.321
- glycan array binding signal (z-score) [11]: -0.252
- glycan array binding signal (z-score) [12]: -0.314
- glycan array binding signal (z-score) [13]: -0.188
- glycan array binding signal (z-score) [14]: -0.596
- glycan array binding signal (z-score) [15]: -0.032
- glycan array binding signal (z-score) [16]: 1.3
- glycan array binding signal (z-score) [17]: -0.292
- glycan array binding signal (z-score) [18]: -0.072
- glycan array binding signal (z-score) [19]: 0.122
- glycan array binding signal (z-score) [20]: -0.02
- glycan array binding signal (z-score) [21]: -0.157
- glycan array binding signal (z-score) [22]: 0
- glycan array binding signal (z-score) [23]: 0.188
- glycan array binding signal (z-score) [24]: -0.265
- glycan array binding signal (z-score) [25]: -0.372
- glycan array binding signal (z-score) [26]: -0.403
- glycan array binding signal (z-score) [27]: -0.393
- glycan array binding signal (z-score) [28]: -0.05
- glycan array binding signal (z-score) [29]: 0.815
- glycan array binding signal (z-score) [30]: -0.234
- glycan array binding signal (z-score) [31]: -0.251
- glycan array binding signal (z-score) [32]: -0.164
- glycan array binding signal (z-score) [33]: -0.075
- glycan array binding signal (z-score) [34]: 0.56
- glycan array binding signal (z-score) [35]: -0.44
- glycan array binding signal (z-score) [36]: 0.955
- glycan array binding signal (z-score) [37]: -0.278
- glycan array binding signal (z-score) [38]: -0.117

Source: the supplement of paper PMC8728848
